Measured values as given in PubChem BioAssay AID485313 (National Center for Advancing Translational Sciences (NCATS), 2010).
In all, about 320,000 compounds went through this assay and about 7,600 (2.4%) were called active. Inconclusive results, whose numbers are uncertain, are shown with a selection of clear calls. Calls come from the whole dose curve; as a rule, active = well fitted activation curve with a large enough effect; inconclusive = small, poorly fitted or top-dose-only effect; inactive = no such curve, though single readings can be large or run the other way. Potencies of inconclusive entries are doubtful fits and often do not repeat.

Experiment: qHTS Assay for NPC1 Promoter Activators; note: nearly all actives have a fitted effect of over 60% in size;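 for activation: reporter is driven by a mutant NPC1 promoter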
Details: Huh7 NPC1 promoter luciferase reporter, 24 h; series mostly up to 9.22 µM
Summary of the method: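 Compounds in DMSO were transferred onto Huh7 NPC1-luciferase reporter cells pre-incubated 2 h; after 24 h at 37 °C, Amplite reagent was dispensed and luminescence recorded 10 min later.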
Potency is the fitted concentration of half-maximal effect; tags give direction and shape of the fitted curve.

Potency, inconclusive:
CC1(C)CC(=O)C=C(Nc2cc(-c3ccccc3)[nH]n2)C1 1 µM [activator, full curve]
CCOC(=O)c1sc(NC(=O)CSc2nccn2C)nc1C 4.47 µM [activator, single point]
CC(=O)Nc1ccc(/C=C/c2nc3ccccc3[nH]c2=O)cc1 3.98 µM [activator, single point]
Cc1ccc(-n2nc3ccc(N)cc3n2)cc1 0.501 µM [activator, full curve]
O=C(N/N=C\c1ccc([N+](=O)[O-])s1)C1COc2ccccc2O1 (stereo unspecified) 1.41 µM [activator, partial curve]
Cc1ccc(-c2noc(CN3CCC(C(N)=O)CC3)n2)cc1 2.24 µM [activator, partial curve]
COc1ccc(-c2cc(CCCC(=O)NCCc3ccccc3)no2)cc1 3.98 µM [activator, partial curve]
COc1cc2c(cc1OC)CN(C(=O)Cc1ccccc1)CC2 1.26 µM [activator, single point]
CN(C(=O)/C=C/c1ccc2c(c1)OCO2)c1ccccc1 3.55 µM [activator, single point]
O=C(/C=C/c1ccco1)Nc1cccc(NC(=O)/C=C/c2ccco2)n1 3.55 µM [activator, single point]
O=C(Nc1ccc(N2CCOCC2)cc1)c1cn2ccccc2n1 0.282 µM [activator, full curve]
COc1ccc(-c2cnc3ccccc3n2)cc1NC(=O)CNC(=O)c1ccccc1 5.62 µM [activator, single point]
O=C(COc1ccccc1)N1CCc2ccccc21 3.55 µM [activator, partial curve]
C=CCn1cccc(C(=O)Nc2ccc(SC)cc2)c1=O 0.794 µM [activator, full curve]
Cc1ccsc1C(=O)OCC(=O)Nc1sccc1C(N)=O 3.55 µM [activator, single point]
Cc1cccc(NC(=O)c2ccccn2)c1C 3.98 µM [activator, partial curve]
Cc1ccc(OCCOc2ccc(Br)cc2)c([N+](=O)[O-])n1 3.16 µM [activator, partial curve]
COc1cc(OC)c(C2CC(=O)N3CN(c4ccc(C)cc4)CSC3=C2C#N)cc1OC (stereo unspecified) 4.47 µM [activator, partial curve]
CCOC(=O)/C(C#N)=C/c1ccc(-c2ccsc2C(=O)OC)o1 3.16 µM [activator, single point]
COc1ccc(Nc2cc(Nc3cccc(OC)c3)ncn2)cc1 5.62 µM [activator, single point]
Cc1ccc(NC(=O)C(=S)NCc2ccco2)cc1 3.55 µM [activator, partial curve]
CC(=O)Nc1ccc(C2C(=O)c3ccccc3C2=O)cc1 1.41 µM [activator, partial curve]
COc1ccc(-n2nc([N+](=O)[O-])c(=NCCc3ccc(C)cc3)n2O)cc1 3.55 µM [activator, partial curve]
C=CCn1c(=N)n(CC(=O)c2cccc([N+](=O)[O-])c2)c2ccccc21 2.82 µM [activator, partial curve]
C1=Nc2ccccc2CN1c1ccccc1 0.562 µM [activator, full curve]
CCOc1ccc(C(=O)Cn2cnc3ccccc3c2=O)cc1 3.55 µM [activator, single point]
COc1ccc2c(=O)c(Oc3ccc(C(=O)O)cc3)c(C(F)(F)F)oc2c1 0.501 µM [activator, partial curve]

Potency, active:
Cc1nc2ccc(NC(=O)c3sccc3C)cc2s1 1.78 µM
c1ccc(-c2nnc(SCCC3OCCCO3)o2)cc1 2.51 µM
O=C(Nc1ccccc1O)c1cc2cc(Br)ccc2oc1=O 3.55 µM
S=C(NCCc1ccccc1)NC1CCCCCC1 2.51 µM
CSc1ccc(/C=N/NC(=O)c2sccc2C)cc1 0.562 µM
Cc1ccc(CNC(=O)Nc2ccccc2)c(C)c1 2.51 µM

Potency, inactive:
O=C(NNC(=O)c1cccc(O)c1)Nc1ccc([N+](=O)[O-])cc1
O=C(NC1CC2CCCC(C1)N2C(=S)Nc1ccc(Cl)cc1)C1CC1 (stereo unspecified)
Cc1ccc(-c2cc(C(=O)OCC(=O)N(C)c3c(N)n(Cc4ccccc4)c(=O)[nH]c3=O)c3ccccc3n2)o1
CCN(CC)C(=O)c1ccccc1NC(=O)c1cccc(S(=O)(=O)N(CC)CC)c1
Nc1nc2sc3c(c2cc1C(=O)NCC(=O)O)CCCC3
O=C(Cn1c(CO)nc2ccccc21)Nc1ccc2c(c1)OCCCO2
Cc1ccc(NC(=O)CNCc2cccs2)cc1Br
CCN1CCC(N2CCN(c3ccc(F)cc3)CC2)CC1
Cc1ccccc1-n1c([C@@H]2C[C@H]2c2ccccc2)n[nH]c1=S
CC(Oc1ccccc1F)C(=O)NNC(=O)CCNC(=O)c1ccco1 (stereo unspecified)
CC12CC(O)C3c4ccc(O)cc4CCC3C1CC/C2=N\O (stereo unspecified)
c1ccc(CCNc2nc(-c3ccncc3)nc3ccccc23)cc1
Cc1oc(-c2ccccc2)nc1CS(=O)CC(=O)NC1CCCCCC1 (stereo unspecified)
CC(=O)NS(=O)(=O)c1ccc(NC(=O)CCC(=O)Oc2ccc(C)cc2)cc1
COc1cccc(OC)c1NC(=O)C1CCCN1C(=O)Nc1ccccc1Cl (stereo unspecified)
Cn1c(C(=O)N2CCN(Cc3ccc4c(c3)OCO4)CC2)cc2sccc21
CCOC(=O)c1[nH]c(C(=O)O)c(OC(=O)CC)c1C
Oc1ccc(-c2nc(-c3ccc(O)c(O)c3)cs2)cc1
